Some of the results follow.
Legend:
Experiment in all cases: glycan array binding signal (z-score within array); higher = stronger binding
Details in all cases: glycan notation: IUPAC condensed, linker removed
[1] = target: GlcNAc(b1-3)Gal(b1-4)GlcNAc(b1-3)Gal(b1-4)GlcNAc(b1-2)Man(a1-3)[GlcNAc(b1-3)Gal(b1-4)GlcNAc(b1-3)Gal(b1-4)GlcNAc(b1-2)Man(a1-6)]Man(b1-4)GlcNAc(b1-4)[Fuc(a1-6)]GlcNAc
Method in brief: (§1)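 The binding signal is a Z-score computed within each array and averaged over linkers. Arrays of the same protein sequence at different concentrations or buffers were also averaged together. Data originate from 3228 arrays in the Consortium for Functional Glycomics database, kept only where the protein sequence was available.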

[2] = target: GlcNAc(b1-3)Gal(b1-4)GlcNAc(b1-3)Gal(b1-4)GlcNAc(b1-2)[GlcNAc(b1-3)Gal(b1-4)GlcNAc(b1-3)Gal(b1-4)GlcNAc(b1-6)]Man(a1-6)[GlcNAc(b1-3)Gal(b1-4)GlcNAc(b1-3)Gal(b1-4)GlcNAc(b1-2)Man(a1-3)]Man(b1-4)GlcNAc(b1-4)[Fuc(a1-6)]GlcNAc
Method in brief: as §1

[3] = target: GlcNAc(b1-3)Gal(b1-4)GlcNAc(b1-3)Gal(b1-4)GlcNAc(b1-3)Gal(b1-4)GlcNAc(b1-2)Man(a1-3)[GlcNAc(b1-3)Gal(b1-4)GlcNAc(b1-3)Gal(b1-4)GlcNAc(b1-3)Gal(b1-4)GlcNAc(b1-2)Man(a1-6)]Man(b1-4)GlcNAc(b1-4)GlcNAc
Method in brief: as §1

[4] = target: GlcNAc(b1-3)Gal(b1-4)GlcNAc(b1-3)Gal(b1-4)GlcNAc(b1-3)Gal(b1-4)GlcNAc(b1-2)Man(a1-3)[GlcNAc(b1-3)Gal(b1-4)GlcNAc(b1-3)Gal(b1-4)GlcNAc(b1-3)Gal(b1-4)GlcNAc(b1-2)Man(a1-6)]Man(b1-4)GlcNAc(b1-4)[Fuc(a1-6)]GlcNAc
Method in brief: as §1

[5] = target: GlcNAc(b1-3)Gal(b1-4)GlcNAc(b1-3)Gal(b1-4)GlcNAc(b1-3)Gal(b1-4)GlcNAc(b1-2)[GlcNAc(b1-3)Gal(b1-4)GlcNAc(b1-3)Gal(b1-4)GlcNAc(b1-3)Gal(b1-4)GlcNAc(b1-6)]Man(a1-6)[GlcNAc(b1-3)Gal(b1-4)GlcNAc(b1-3)Gal(b1-4)GlcNAc(b1-3)Gal(b1-4)GlcNAc(b1-2)Man(a1-3)]Man(b1-4)GlcNAc(b1-4)[Fuc(a1-6)]GlcNAc
Method in brief: as §1

[6] = target: GlcNAc(b1-3)Gal(b1-4)GlcNAc(b1-3)Gal(b1-4)GlcNAc(b1-3)Gal(b1-4)GlcNAc(b1-3)Gal(b1-4)GlcNAc(b1-2)Man(a1-3)[GlcNAc(b1-3)Gal(b1-4)GlcNAc(b1-3)Gal(b1-4)GlcNAc(b1-3)Gal(b1-4)GlcNAc(b1-3)Gal(b1-4)GlcNAc(b1-2)Man(a1-6)]Man(b1-4)GlcNAc(b1-4)GlcNAc
Method in brief: as §1

[7] = target: GlcNAc(b1-3)Gal(b1-4)GlcNAc(b1-3)Gal(b1-4)GlcNAc(b1-3)Gal(b1-4)GlcNAc(b1-3)Gal(b1-4)GlcNAc(b1-2)Man(a1-3)[GlcNAc(b1-3)Gal(b1-4)GlcNAc(b1-3)Gal(b1-4)GlcNAc(b1-3)Gal(b1-4)GlcNAc(b1-3)Gal(b1-4)GlcNAc(b1-2)Man(a1-6)]Man(b1-4)GlcNAc(b1-4)[Fuc(a1-6)]GlcNAc
Method in brief: as §1

[8] = target: GlcNAc(b1-3)Gal(b1-4)GlcNAc(b1-3)Gal(b1-4)GlcNAc(b1-3)Gal(b1-4)GlcNAc(b1-3)Gal(b1-4)GlcNAc(b1-2)[GlcNAc(b1-3)Gal(b1-4)GlcNAc(b1-3)Gal(b1-4)GlcNAc(b1-3)Gal(b1-4)GlcNAc(b1-3)Gal(b1-4)GlcNAc(b1-6)]Man(a1-6)[GlcNAc(b1-3)Gal(b1-4)GlcNAc(b1-3)Gal(b1-4)GlcNAc(b1-3)Gal(b1-4)GlcNAc(b1-3)Gal(b1-4)GlcNAc(b1-2)Man(a1-3)]Man(b1-4)GlcNAc(b1-4)[Fuc(a1-6)]GlcNAc
Method in brief: as §1

[9] = target: GlcNAc(b1-3)Gal(b1-4)GlcNAc(b1-3)Gal(b1-4)GlcNAc(b1-3)GalNAc
Method in brief: as §1

[10] = target: GlcNAc(b1-3)Gal(b1-4)GlcNAc(b1-3)GalNAc
Method in brief: as §1

[11] = target: GlcNAc(b1-3)Gal(b1-4)GlcNAc(b1-3)[GlcNAc(b1-3)Gal(b1-4)GlcNAc(b1-3)]GalNAc
Method in brief: as §1

[12] = target: GlcNAc(b1-3)Gal(b1-4)GlcNAc(b1-6)[Gal(b1-3)]GalNAc
Method in brief: as §1

[13] = target: GlcNAc(b1-3)Gal(b1-4)GlcNAc(b1-6)[GlcNAc(b1-3)Gal(b1-3)]GalNAc
Method in brief: as §1

[14] = target: GlcNAc(b1-3)Gal(b1-4)GlcNAc(b1-6)[GlcNAc(b1-3)]Gal(b1-4)GlcNAc
Method in brief: as §1

GlcNAc(b1-3)GalNAc = target: GlcNAc(b1-3)GalNAc
Method in brief: as §1

GlcNAc(b1-3)Man = target: GlcNAc(b1-3)Man
Method in brief: as §1

[15] = target: GlcNAc(b1-3)[GlcNAc(b1-4)][GlcNAc(b1-6)]GlcNAc
Method in brief: as §1

[16] = target: GlcNAc(b1-3)[GlcNAc(b1-6)]Gal(b1-4)GlcNAc
Method in brief: as §1

[17] = target: GlcNAc(b1-3)[GlcNAc(b1-6)]GalNAc
Method in brief: as §1

[18] = target: GlcNAc(b1-4)Gal(b1-4)GlcNAc
Method in brief: as §1

GlcNAc(b1-4)GlcNAc = target: GlcNAc(b1-4)GlcNAc
Method in brief: as §1

[19] = target: GlcNAc(b1-4)GlcNAc(b1-4)GlcNAc
Method in brief: as §1

[20] = target: GlcNAc(b1-4)GlcNAc(b1-4)GlcNAc(b1-4)GlcNAc(b1-4)GlcNAc
Method in brief: as §1

B1: Microvirin-2 (Microcystis aeruginosa) (protein)
chain: MPNFSHTCSSINYDPDSTILSAECQARDGEWLPTELRLSDHIGNIDGELQFGDQNFQETCQDCHLEFGDGEQSVWLVCTCQTMDGEWKSTQILLDSQIDNNDSQLEIGGSMPNFSHTCSSINYDPDSTILSAECQARDGEWLPTELRLSDHIGNIDGELQFGDQNFQETCQDCHLEFGDGEQSVWLVCTCQTMDGEWKSTQILLDSQIDNNDSQLEIG
glycan array binding signal (z-score) [1]: -0.066
glycan array binding signal (z-score) [2]: -0.125
glycan array binding signal (z-score) [3]: -0.138
glycan array binding signal (z-score) [4]: -0.084
glycan array binding signal (z-score) [5]: -0.116
glycan array binding signal (z-score) [6]: -0.111
glycan array binding signal (z-score) [7]: -0.098
glycan array binding signal (z-score) [8]: -0.11
glycan array binding signal (z-score) [9]: -0.129
glycan array binding signal (z-score) [10]: -0.131
glycan array binding signal (z-score) [11]: -0.126
glycan array binding signal (z-score) [12]: -0.138
glycan array binding signal (z-score) [13]: -0.12
glycan array binding signal (z-score) [14]: -0.135
glycan array binding signal (z-score) (GlcNAc(b1-3)GalNAc): -0.142
glycan array binding signal (z-score) (GlcNAc(b1-3)Man): -0.144
glycan array binding signal (z-score) [15]: -0.136
glycan array binding signal (z-score) [16]: -0.14
glycan array binding signal (z-score) [17]: -0.131
glycan array binding signal (z-score) [18]: -0.137
glycan array binding signal (z-score) (GlcNAc(b1-4)GlcNAc): -0.134
glycan array binding signal (z-score) [19]: -0.14
glycan array binding signal (z-score) [20]: -0.128
